Results as given in PubChem BioAssay AID1347165 (National Center for Advancing Translational Sciences (NCATS), 2019).
Values joined by “and” are separate entries in the source; they are usually repeats but may differ in a detail not shown here. Equal entries are not always repeated. Out of some 220,000 compounds screened, about 5,700 (2.6%) were called active. This list was built around the results that the source calls inconclusive (neither active nor inactive); the mix of calls is not that of the screen. The call rests on the fitted dose curve; in most records, active means well fitted inhibition curve with a large enough effect; inconclusive means small, poorly fitted or top-dose-only effect; inactive means no such curve, though single readings can be large or run the other way. Potencies beside an inconclusive call are fits to weak or partial responses and may not hold up.

What follows are molecules tested against Lysine-specific demethylase 5B (Homo sapiens) (UniProt Q9UGL1) (assay: Primary screen for KDM5B Histone Demethylases FDH-coupled qHTS). Conditions: FDH-coupled NADH fluorescence (FDH is formaldehyde dehydrogenase); series mostly up to 57.7 µM.
Chain of UniProt Q9UGL1 (Q9UGL1 whole entry, looked up): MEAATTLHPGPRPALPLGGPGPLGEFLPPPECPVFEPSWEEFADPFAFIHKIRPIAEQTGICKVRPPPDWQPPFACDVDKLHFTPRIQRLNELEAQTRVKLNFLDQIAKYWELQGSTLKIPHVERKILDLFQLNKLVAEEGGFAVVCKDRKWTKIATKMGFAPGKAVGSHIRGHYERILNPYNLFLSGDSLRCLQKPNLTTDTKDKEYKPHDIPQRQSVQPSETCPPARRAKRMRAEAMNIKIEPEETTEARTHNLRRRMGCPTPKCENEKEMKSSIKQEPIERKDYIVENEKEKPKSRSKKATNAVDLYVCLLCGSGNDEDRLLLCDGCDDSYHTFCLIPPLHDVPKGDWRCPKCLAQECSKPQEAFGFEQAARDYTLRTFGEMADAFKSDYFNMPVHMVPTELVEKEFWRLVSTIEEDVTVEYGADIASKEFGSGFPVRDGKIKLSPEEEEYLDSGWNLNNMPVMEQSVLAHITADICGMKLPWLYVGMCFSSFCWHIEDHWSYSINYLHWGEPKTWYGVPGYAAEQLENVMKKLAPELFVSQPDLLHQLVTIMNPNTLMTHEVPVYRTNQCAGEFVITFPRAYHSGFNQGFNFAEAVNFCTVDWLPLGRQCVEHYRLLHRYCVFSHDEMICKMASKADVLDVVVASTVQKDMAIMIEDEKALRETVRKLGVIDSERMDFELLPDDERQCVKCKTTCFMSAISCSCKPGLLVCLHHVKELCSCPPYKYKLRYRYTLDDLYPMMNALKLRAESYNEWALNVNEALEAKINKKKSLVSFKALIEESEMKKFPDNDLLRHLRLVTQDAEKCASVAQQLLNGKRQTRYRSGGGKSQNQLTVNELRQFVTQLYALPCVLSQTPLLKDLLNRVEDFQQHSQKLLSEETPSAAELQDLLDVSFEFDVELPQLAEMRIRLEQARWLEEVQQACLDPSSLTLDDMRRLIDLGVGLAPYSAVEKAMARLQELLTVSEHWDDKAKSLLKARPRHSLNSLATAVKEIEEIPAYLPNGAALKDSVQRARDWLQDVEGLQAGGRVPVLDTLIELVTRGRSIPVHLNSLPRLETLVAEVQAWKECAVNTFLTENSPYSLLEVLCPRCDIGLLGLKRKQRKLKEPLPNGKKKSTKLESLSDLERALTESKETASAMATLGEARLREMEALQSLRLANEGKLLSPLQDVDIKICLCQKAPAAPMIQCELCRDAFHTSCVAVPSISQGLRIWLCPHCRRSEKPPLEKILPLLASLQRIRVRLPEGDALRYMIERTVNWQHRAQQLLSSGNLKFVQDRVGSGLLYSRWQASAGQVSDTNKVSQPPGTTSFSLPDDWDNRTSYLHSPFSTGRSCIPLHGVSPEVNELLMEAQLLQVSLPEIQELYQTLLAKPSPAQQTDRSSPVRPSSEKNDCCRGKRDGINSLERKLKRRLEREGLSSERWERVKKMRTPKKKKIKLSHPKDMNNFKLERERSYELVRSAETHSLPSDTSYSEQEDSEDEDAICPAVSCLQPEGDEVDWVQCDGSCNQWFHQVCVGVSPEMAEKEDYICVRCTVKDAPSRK
How it was run: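 Coupled FDH/NAD⁺ fluorescence readout. KDM5BΔAP 200 nM final; compound titration, 10 min RT preincubation; substrate mix 12.5 µM H3K4me3, 25 µM 2-OG, 50 µM Fe(II), 100 µM ascorbate, 0.25 mM NAD⁺, 0.25 U/mL FDH; ΔRFU over 30 min.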
Further: nearly all actives have a fitted effect of over 70% in size.
Potency means the concentration at half of the fitted maximal effect; tags describe the fitted curve by direction and shape.

Q: For `COc1ccc(N2CC3CCC(C2)N3Cc2ccc(-c3cccnc3)cc2)cc1`, which Potency is on record?
A: inconclusive: 56.2 µM [inhibitor, partial curve]

Q: For `COc1cccc(N2CC(NC(=O)/C=C\c3ccc4c(c3)OCO4)CC2=O)c1` (configuration not stated), which Potency is on record?
A: inconclusive: 28.2 µM [inhibitor, partial curve, poor fit]

Q: For `Brc1ccc(-c2nnc(-c3cccs3)o2)o1`, which Potency is on record?
A: inconclusive: 28.2 µM [inhibitor, partial curve, poor fit]

Q: With `O=C(Nc1ccc2c(c1)OCO2)C1CCCN(c2cnn(Cc3ccccc3)c(=O)c2)C1` (configuration not stated) as the molecule, how does the Potency read?
A: inconclusive: 12.6 µM [inhibitor, partial curve, poor fit]

Q: How did the Potency turn out when `N#Cc1ccc(CN2CCC(N3CCCOC3=O)CC2)cc1` was run?
A: inconclusive: 39.8 µM [inhibitor, partial curve, poor fit]

Q: How did the Potency turn out when `COC(=O)c1c(C)[nH]c(-c2ccc(F)cc2OC)c1C1C(=O)Nc2ccc(F)cc21` (configuration not stated) was run?
A: inconclusive: 39.8 µM [inhibitor, single point]

Q: For `CNC(=O)CCn1ncc2cc(OCc3ccccc3-c3ccc(F)c(Cl)c3)ccc21`, which Potency is on record?
A: inconclusive: 35.5 µM [inhibitor, single point]

Q: How did the Potency turn out when `Cc1ccc(-n2nc(C)c([C@@H]3C=C[C@@H](NCc4cccc(C#N)c4)C3)c2C)cc1Cl` was run?
A: inconclusive: 39.8 µM [inhibitor, partial curve, poor fit]

Q: Which Potency does the source give for `c1ccc(-c2nnc(SCc3nc4ccccc4o3)o2)cc1` here?
A: inconclusive: 28.2 µM [inhibitor, partial curve, poor fit]

Q: `CCOC(=O)c1sc2nc(CC)c3c(c2c1N)CC(C)(C)OC3` was tested. Which Potency did it give?
A: inconclusive: 1.78 µM [inhibitor, full curve, poor fit]

Q: How did the Potency turn out when `COc1ccccc1/C=C/c1nc(C#N)c(N2CCCCCC2)o1` was run?
A: inconclusive: 31.6 µM [inhibitor, partial curve, poor fit]

Q: For `Cc1ccc(-n2c3nc(=O)n(C)c(=O)c-3cc3c(Cl)cccc32)c(C)c1`, which Potency is on record?
A: inconclusive: 2.82 µM [inhibitor, partial curve, poor fit]

Q: How did the Potency turn out when `Cc1cc(C(=O)N2CCN(c3ncccc3C#N)CC2)no1` was run?
A: inconclusive: 25.1 µM [inhibitor, partial curve, poor fit]

Q: How did the Potency turn out when `CC1CCCN(S(=O)(=O)c2ccc(NC(=O)c3nc(SC(C)C)ncc3Cl)cc2)C1` (configuration not stated) was run?
A: inconclusive: 1 µM [inhibitor, full curve, poor fit]

Q: For `O=C(c1csc2nc(-c3ccc(F)cc3)cn12)N1C[C@H]2CC[C@@H](C1)N2`, which Potency is on record?
A: inconclusive: 17.8 µM [inhibitor, single point]

Q: Which Potency does the source give for `COc1cc(NC(=O)CCc2c(C)nc3nc(-c4cc(OC)cc(OC)c4)nn3c2C)cc(OC)c1` here?
A: inconclusive: 1.26 µM [inhibitor, partial curve, poor fit]

Q: With `CCCCN(CC)CCNC(=O)c1cc2c(-c3ccc(Cl)cc3)nn(C)c2s1` as the molecule, how does the Potency read?
A: inconclusive: 31.6 µM [inhibitor, partial curve, poor fit] and inconclusive: 28.2 µM [inhibitor, partial curve, poor fit]

Q: For `O=C(/C=C/c1cccc(Cl)c1)c1cccc(O)c1`, which Potency is on record?
A: inconclusive: 22.4 µM [inhibitor, single point]

Q: For `Cc1ccc(S(=O)(=O)c2nc(-c3ccco3)oc2SC(C)c2ccccc2)cc1` (configuration not stated), which Potency is on record?
A: inconclusive: 15.8 µM [inhibitor, partial curve, poor fit]

Q: With `Cc1noc(C)c1C(=O)N[C@@H]1CN(c2ccncn2)C[C@H]1CN(C)C` as the molecule, how does the Potency read?
A: inconclusive: 39.8 µM [inhibitor, single point]

Q: With `C(=N\N=C1c2ccccc2-c2ccccc21)/c1cccs1` as the molecule, how does the Potency read?
A: inactive

Q: How did the Potency turn out when `O=C(Cn1nc2c(cc1=O)CCCC2)Nc1ccc(F)c(F)c1F` was run?
A: inactive

Q: `Cc1cc(-c2ccccc2)c(-c2nc3ccccc3s2)[nH]1` was tested. Which Potency did it give?
A: inconclusive: 25.1 µM [inhibitor, partial curve, poor fit]

Q: `CCc1nc(NC(=O)C[C@H]2NC(=O)c3ccccc3NC2=O)n[nH]1` was tested. Which Potency did it give?
A: inactive

Q: Which Potency does the source give for `CCc1ccc(CNC(=O)C(=O)c2c(C)[nH]c3ccccc23)cc1` here?
A: inconclusive: 39.8 µM [inhibitor, single point]

Q: For `COc1cccc(CNC(=O)c2ccc(Cn3c(SCc4ccccc4)nc4cccnc43)cc2)c1`, which Potency is on record?
A: inconclusive: 31.6 µM [inhibitor, partial curve, poor fit]

Q: With `CONC(=O)CC1Sc2ccc(Cl)cc2NC1=O` (configuration not stated) as the molecule, how does the Potency read?
A: inactive

Q: Which Potency does the source give for `COc1ccccc1Nc1cc(C(=O)NCCCN(C)c2ccccc2)c2ccccc2n1` here?
A: inconclusive: 28.2 µM [inhibitor, partial curve, poor fit]

Q: Which Potency does the source give for `Cc1ccc(-c2nc3ccccc3n2Cc2ccc(F)cc2)o1` here?
A: inconclusive: 28.2 µM [inhibitor, partial curve, poor fit]

Q: With `COc1ccc(S(=O)(=O)N2CCN(c3cc(N4CCCC4)nc(C)n3)CC2)cc1OC` as the molecule, how does the Potency read?
A: inconclusive: 39.8 µM [inhibitor, single point]

Q: Which Potency does the source give for `C[C@H]1[C@@H]2[C@@H](O)C([C@H](C)C(=O)NCc3ccco3)CC[C@@]2(C)CC[C@@H]1NC(=O)CC(C)(C)C` (some centres not stated) here?
A: inconclusive: 35.5 µM [inhibitor, partial curve, poor fit]

Q: With `Cc1cn2nc(C(=O)NC(C)c3ccccc3)cc2c(N2CCCC2)n1` (configuration not stated) as the molecule, how does the Potency read?
A: inactive

Q: How did the Potency turn out when `O=C(NCc1cccc(Cl)c1)c1cc2n(n1)CC(c1ccc3c(c1)OCO3)OC2` (configuration not stated) was run?
A: active: 20 µM

Q: Which Potency does the source give for `COc1ccc(C(=O)N2CC(c3noc(C4CCCN4CC4CC4)n3)C2)cc1` (configuration not stated) here?
A: inactive

Q: How did the Potency turn out when `CC1(C(=O)NCCCN2CCCc3ccccc32)CCCCC(=O)N1` (configuration not stated) was run?
A: inconclusive: 31.6 µM [inhibitor, partial curve, poor fit]

Q: Which Potency does the source give for `Cc1[nH]ncc1Cl` here?
A: inactive

Q: How did the Potency turn out when `Cc1cn2nc(C(=O)NCc3ccncc3)cc2c(=O)[nH]1` was run?
A: inconclusive: 35.5 µM [inhibitor, single point]

Q: `CC(C)(C)NC(=O)COC(=O)c1cc(-c2ccccc2)nc2c1cnn2Cc1cccc(F)c1` was tested. Which Potency did it give?
A: inconclusive: 17.8 µM [inhibitor, partial curve, poor fit]

Q: `C=CCOc1ccc(/C=C/C(=O)OCC(=O)NCCC2=CCCCC2)cc1` was tested. Which Potency did it give?
A: inconclusive: 25.1 µM [inhibitor, single point]

Q: For `O=C(NC1CCCCC1)c1cc(Nc2ccccc2)nc2ccccc12`, which Potency is on record?
A: inconclusive: 35.5 µM [inhibitor, partial curve, poor fit]

Q: How did the Potency turn out when `NC(=O)c1[nH]ncc1NCc1cccnc1` was run?
A: inconclusive: 39.8 µM [inhibitor, single point]

Q: For `CCCc1noc(-c2ccn3c(CNC(=O)c4cc(F)ccc4F)nnc3c2)n1`, which Potency is on record?
A: active: 31.6 µM

Q: For `CCCc1cc(CN(C)C(=O)c2cn(CC(=O)N(CC)CC)nn2)[nH]n1`, which Potency is on record?
A: inconclusive: 28.2 µM [inhibitor, partial curve, poor fit]

Q: `Cc1ncsc1C(=O)NCc1ccc(N2CCCCCC2)nc1` was tested. Which Potency did it give?
A: inactive

Q: With `CC(C)C1N=C2c3ccccc3N=C(SCC(=O)NCc3ccc(F)cc3)N2C1=O` (configuration not stated) as the molecule, how does the Potency read?
A: inconclusive: 28.2 µM [inhibitor, partial curve, poor fit]

Q: How did the Potency turn out when `Cc1cccc(NC(=O)Cc2nc(-c3c(N)n(CC(C)C)c(=O)n(C)c3=O)cs2)c1` was run?
A: inactive

Q: `O=C(Cn1ccn2nc(-c3ccc(F)cc3)c(CO)c2c1=O)NCc1ccccc1Br` was tested. Which Potency did it give?
A: active: 22.4 µM

Q: For `CCC(Sc1ccc(Cl)cc1)C(=O)O` (configuration not stated), which Potency is on record?
A: inactive

Q: With `CCOC(=O)c1cc(-c2ccccc2)nc2nc(N(CC)CC)sc12` as the molecule, how does the Potency read?
A: inconclusive: 17.8 µM [inhibitor, partial curve, poor fit]

Q: `O=C(CCC1CCCC1)NC1CCc2ccccc21` (configuration not stated) was tested. Which Potency did it give?
A: inactive

Q: How did the Potency turn out when `COc1ccc(Cl)cc1NC(=O)C1CCCN1C(=O)C12CC3CC(CC(C3)C1)C2` (configuration not stated) was run?
A: inactive

Q: How did the Potency turn out when `Cc1cccc(CNC(=O)c2ccc3nc(-c4ccccc4)c(-c4ccccc4)nc3c2)c1` was run?
A: inconclusive: 3.98 µM [inhibitor, partial curve, poor fit]

Q: Which Potency does the source give for `Cc1cc(C(=O)NNc2ccc(C)c(C)c2)no1` here?
A: inactive

Q: `COc1cc(C)ccc1OCc1cccc(C(N)=O)c1` was tested. Which Potency did it give?
A: inactive

Q: `CCCCCn1nc(C(=O)OCCOc2cccc(C)c2)c2ccccc2c1=O` was tested. Which Potency did it give?
A: inconclusive: 39.8 µM [inhibitor, single point]

Q: How did the Potency turn out when `Cc1cc(NC(=O)COC(=O)c2cc3ccccc3o2)no1` was run?
A: inactive

Q: With `Cc1ccc(N/N=C/c2ccc(C(C)(C)C)cc2)cc1Cl` as the molecule, how does the Potency read?
A: inactive

Q: How did the Potency turn out when `CN1CCC(N2CC[C@H](c3nc4ccc(C#N)cc4[nH]3)C2)CC1` was run?
A: active: 35.5 µM

Q: Which Potency does the source give for `COC(=O)C1=C(N)OC2=C(C(=O)CC(C)(C)C2)C1c1cccc(Cl)c1` (configuration not stated) here?
A: inactive

Q: `O=C([C@@H]1C[C@H](Oc2ccccc2)CN1C(=O)c1ccsc1)N1CCOCC1` was tested. Which Potency did it give?
A: inactive

Q: `CCn1nccc1C(=O)NC1CCN(c2cc(-c3ccccc3)[nH]n2)CC1` was tested. Which Potency did it give?
A: inconclusive: 14.1 µM [inhibitor, partial curve]

Q: Which Potency does the source give for `COc1ccc(C(=O)N2CCC(N3CC4CC(C3)[C@H]3CCCC(=O)N3C4)CC2)c(OC)n1` (some centres not stated) here?
A: inconclusive: 11.2 µM [inhibitor, partial curve]

Q: For `COc1cccc(N2CCN(c3ccc4nnc(CCC(=O)O)n4n3)CC2)c1`, which Potency is on record?
A: inconclusive: 10 µM [inhibitor, partial curve, poor fit]

Q: For `Cc1c(C(=O)OCC(=O)NCC2CCCO2)sc2ccccc12` (configuration not stated), which Potency is on record?
A: inactive

Q: With `COCCn1c(CO)nnc1C1CC(NC(=O)c2ccc3c(c2)CCO3)C1` (configuration not stated) as the molecule, how does the Potency read?
A: inactive

Q: For `COc1ccc2c(c1)O/C(=C\c1ccc(OS(C)(=O)=O)cc1)C2=O`, which Potency is on record?
A: inactive

Q: For `CN1CC2(CCN(Cc3cccs3)CC2)CC(c2ccccc2)C1=O` (configuration not stated), which Potency is on record?
A: inconclusive: 11.2 µM [inhibitor, partial curve, poor fit]
